Inconclusive means that the source gave no clear call. Such entries were picked first, then a sample of the others. For part of these data: No potency is given beside an inconclusive call; the fits are too rough. Activity calls are given as the source filed them. Calls follow the shape of the dose curve; as a rule, active = well fitted curve in the direction sought with a large enough effect; inconclusive = small, poorly fitted or top-dose-only effect, or another doubt; inactive = no such curve, though single readings can be large; an effect the other way counts as inactive or inconclusive.
Experiments:
[1] = molecular target: Glutaminase kidney isoform, mitochondrial (Homo sapiens) (UniProt O94925); assay: qHTS for Inhibitors of Glutaminase (GLS): LOPAC Validation (AID 624146); also: nearly all actives have a fitted effect of over 60% in size
Procedure, shortened: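 Human kidney-isoform GLS in 45 mM KH2PO4 pH 8.2, 0.02% Tween-20, with compound, started with 1mM L-Glutamine (added stock). Glutamate oxidase/HRP/Amplex red coupled fluorescence read at start and after 30 min at RT.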

[2] = molecular target: Papain (Carica papaya) (UniProt P00784); assay: Primary qHTS assay for inhibitors of the protease papain (AID 1645873);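 also: papain turnover of Z-FR-AMC read as the AMC fluorescence gain over 10 min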
[3] = HepG2 cells viability qHTS for Zika virus inhibitors (AID 1347168)
Procedure, shortened: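 qHTS titration; 24-48 h compound exposure, 37 degrees C/5% CO2; DMEM, 4% FBS; CellTiter Glo ATP luminescence.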

[4] = molecular target: Phospholipid hydroperoxide glutathione peroxidase GPX4 (Homo sapiens) (UniProt P36969); assay: Primary qHTS Assay for Inhibitors of Recombinant Selenoprotein Glutathione Peroxidase 4 (GPX4) (AID 1845192); also: nearly all actives have a fitted effect of over 65% in size
Procedure, shortened: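 Steps: GPX4 plus compound, 30 min RT; add GR/GSH/NADPH master mix; start with cumene hydroperoxide; read 340/450 nm fluorescence at 0 and 15 min. Finals were 200 nM GPX4, 1 mM GSH, 0.5 mM CHP, 0.5 mM NADPH, 100 nM GR.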
Potency is read from the fitted curve at half-maximal effect; tags tell the direction and shape of the fitted curve.

UniProt P36969, sequence (P36969 whole entry, looked up): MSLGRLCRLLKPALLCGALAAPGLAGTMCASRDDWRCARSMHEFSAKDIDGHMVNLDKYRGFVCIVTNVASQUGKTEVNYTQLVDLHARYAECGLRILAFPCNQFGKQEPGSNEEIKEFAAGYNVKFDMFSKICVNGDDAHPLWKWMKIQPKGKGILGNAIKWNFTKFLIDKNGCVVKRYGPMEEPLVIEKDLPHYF
UniProt P00784, sequence (P00784 whole entry, looked up): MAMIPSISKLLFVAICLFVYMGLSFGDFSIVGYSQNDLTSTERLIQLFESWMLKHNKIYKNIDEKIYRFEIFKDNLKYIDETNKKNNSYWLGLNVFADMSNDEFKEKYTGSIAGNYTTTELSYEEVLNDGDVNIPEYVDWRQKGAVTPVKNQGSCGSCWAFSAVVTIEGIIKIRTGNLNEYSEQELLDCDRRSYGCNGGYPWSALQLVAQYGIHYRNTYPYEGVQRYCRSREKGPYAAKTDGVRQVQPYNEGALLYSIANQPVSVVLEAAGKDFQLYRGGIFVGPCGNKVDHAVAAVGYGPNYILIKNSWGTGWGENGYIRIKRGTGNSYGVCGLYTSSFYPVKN
UniProt O94925, sequence (O94925 whole entry, looked up, canonical isoform): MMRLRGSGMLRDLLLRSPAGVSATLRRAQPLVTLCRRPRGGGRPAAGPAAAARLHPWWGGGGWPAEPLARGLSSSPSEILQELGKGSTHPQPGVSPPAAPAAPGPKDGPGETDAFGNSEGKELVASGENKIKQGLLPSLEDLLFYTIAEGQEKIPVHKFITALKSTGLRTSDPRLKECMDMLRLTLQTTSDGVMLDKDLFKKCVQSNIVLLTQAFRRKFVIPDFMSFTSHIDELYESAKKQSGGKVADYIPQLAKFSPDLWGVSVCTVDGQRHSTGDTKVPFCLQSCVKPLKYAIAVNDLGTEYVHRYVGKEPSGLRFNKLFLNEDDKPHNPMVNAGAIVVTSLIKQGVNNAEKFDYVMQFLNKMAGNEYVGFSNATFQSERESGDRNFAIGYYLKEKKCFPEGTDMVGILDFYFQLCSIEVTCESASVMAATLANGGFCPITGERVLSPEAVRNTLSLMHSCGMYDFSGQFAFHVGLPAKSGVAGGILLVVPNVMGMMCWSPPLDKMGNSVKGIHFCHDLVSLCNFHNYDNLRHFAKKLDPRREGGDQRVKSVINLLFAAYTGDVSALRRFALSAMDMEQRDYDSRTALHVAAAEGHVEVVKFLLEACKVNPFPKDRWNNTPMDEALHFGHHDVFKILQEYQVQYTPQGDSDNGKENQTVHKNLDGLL

SMILES: O=c1[nH]c(=S)[nH]c(-c2ccccc2)c1Cc1c(O)ccc2ccccc12
- Potency [1]: active: 8.91 µM
- Potency [2]: inconclusive [inhibitor, partial curve, poor fit]

SMILES: CCOc1nc2cccc(C(=O)OC(C)OC(=O)OC3CCCCC3)c2n1Cc1ccc(-c2ccccc2-c2nn[nH]n2)cc1 (stereo unspecified)
- Potency [3]: inactive
- Potency [4]: active: 7.94 µM

SMILES: Cc1c2ccccc2c(CSC(=N)N)c2ccccc12
- Potency [3]: inconclusive [cytotoxic, single point]

SMILES: COc1cccc(-n2nc(C(=O)O)cc2-c2ccc(C3CCCCC3)c(Cl)c2)c1
- Potency [4]: inconclusive [inhibitor, single point]
